Several values for one entry are separate records, joined by “and”; a condition that tells them apart may be missing. Equal entries are not always repeated. Structures can show the parent of a compound that is named as a salt. About 620 (11%) of roughly 5,800 compounds showed activity.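 The calls were made as follows: active = score above a cut-off or among the top three wells of a plate; in these data no inactive exceeds 0.85.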 This is a selection; strong and weak results do not stand in their true shares.
System: primary human hepatic stellate cells (donor 1)
Test: scaled lipid accumulation score (0 = DMSO-like, 1 = nortriptyline-like); higher = stronger HSC inactivation (lipid re-accumulation), active = hit call of the paper
Conditions: 48 h
[1] = library stock concentration: 3.33 mM
[2] = library stock concentration: 10 mM
[3] = library stock concentration: 1 mM
[4] = library stock concentration: 4.9 mM

Cc1noc(-c2ccc(CSCCC(=O)O)cc2)c1NC(=O)OC(C)c1ccccc1Cl (centres undefined)
scaled lipid accumulation score [1]: inactive: 0.003 | scaled lipid accumulation score [2]: inactive: ≤ 0

CC(N)=NCc1cccc(CN)c1
scaled lipid accumulation score (library stock concentration: 20 mM): inactive: ≤ -0.021

COc1ccc(-c2cc(=O)c3c(OC)c(OC)c(OC)c(OC)c3o2)cc1OC [Nobiletin]
scaled lipid accumulation score [1]: inactive: ≤ 0 | scaled lipid accumulation score [2]: inactive: 0.152 and inactive: ≤ 0

CC/C=C\C/C=C\C/C=C\C/C=C\C/C=C\C/C=C\CCC(=O)O [Docosahexaenoic acid(22:6 n-3)]
scaled lipid accumulation score [3]: inactive: ≤ -0.021

CC/C=C\C/C=C\C/C=C\C/C=C\C/C=C\C/C=C\CCC(=O)O [Docosahexaenoic Acid]
scaled lipid accumulation score [3]: inactive: ≤ 0

CS(=O)(=O)CCNCc1nc(-c2ccc3ncnc(Nc4ccc(OCc5cccc(F)c5)c(Cl)c4)c3c2)cs1.Cl.Cl
scaled lipid accumulation score [2]: active: 1.38

CCC[C@@H]1C[C@@H](C(=O)N[C@@H]([C@H]2O[C@H](SC)[C@H](O)[C@@H](O)[C@H]2O)[C@@H](C)O)N(C)C1 [Lincomycin]
scaled lipid accumulation score [4]: inactive: ≤ -0.006

CCC[C@@H]1C[C@@H](C(=O)N[C@@H]([C@H]2O[C@H](SC)[C@H](O)[C@@H](O)[C@H]2O)[C@@H](C)O)N(C)C1 [Lincomycin hydrochloride]
scaled lipid accumulation score: inactive: ≤ 0 | scaled lipid accumulation score (library stock concentration: 4.5 mM): inactive: ≤ 0 | scaled lipid accumulation score [2]: inactive: ≤ 0

CCC[C@@H]1C[C@@H](C(=O)N[C@@H]([C@H]2O[C@H](SC)[C@H](O)[C@@H](O)[C@H]2O)[C@@H](C)O)N(C)C1 [Lincomycin HCl]
scaled lipid accumulation score [1]: inactive: ≤ 0 | scaled lipid accumulation score [2]: inactive: ≤ 0

N#Cc1c(Oc2ccc(F)c(NC(=O)Cc3cccc(C(F)(F)F)c3)c2)ccc2nc(NC(=O)C3CC3)sc12
scaled lipid accumulation score (library stock concentration: 80 uM): inactive: ≤ 0 | scaled lipid accumulation score (library stock concentration: 400 uM): inactive: ≤ 0 | scaled lipid accumulation score (library stock concentration: 2 mM): inactive: ≤ 0 | scaled lipid accumulation score [1]: inactive: ≤ -0.009 | scaled lipid accumulation score [2]: inactive: ≤ 0

CO[C@H]1C[C@@H]2CC[C@@H](C)[C@@](O)(O2)C(=O)C(=O)N2CCCC[C@H]2C(=O)O[C@H]([C@H](C)C[C@@H]2CC[C@@H](OC(=O)C(C)(CO)CO)[C@H](OC)C2)CC(=O)[C@H](C)/C=C(\C)[C@@H](O)[C@@H](OC)C(=O)[C@H](C)C[C@H](C)/C=C/C=C/C=C/1C
scaled lipid accumulation score [1]: inactive: 0.032 | scaled lipid accumulation score [2]: inactive: 0.094

CN1CCCN=C1/C=C/c1cccs1 [Pyrantel pamoate]
scaled lipid accumulation score [2]: inactive: ≤ 0

CN1CCCN=C1/C=C/c1cccs1 [Pyrantel tartrate]
scaled lipid accumulation score: inactive: 0.023

CN1C(C(=O)Nc2ccccn2)=C(O)c2sc(Cl)cc2S1(=O)=O
scaled lipid accumulation score [2]: inactive: ≤ 0

CN1C(C(=O)Nc2ccccn2)=C(O)c2sc(Cl)cc2S1(=O)=O [Lornoxicam]
scaled lipid accumulation score [1]: inactive: ≤ 0 | scaled lipid accumulation score [2]: inactive: ≤ 0

CC12CC3CC(C)(C1)CC(N)(C3)C2
scaled lipid accumulation score [2]: active: 0.869

COc1ccc(-c2cc(=O)c3c(OC)c(OC)c(OC)c(OC)c3o2)cc1 [Tangeretin]
scaled lipid accumulation score [1]: inactive: 0.102 | scaled lipid accumulation score [2]: inactive: ≤ 0

O=C(O)c1ccc(C=C2SC(=S)N(c3cccc(C(F)(F)F)c3)C2=O)cc1
scaled lipid accumulation score [1]: inactive: ≤ -0.009 | scaled lipid accumulation score [2]: inactive: 0.168 and inactive: 0.026

Nc1ccc(S(=O)(=O)O)cc1.Nc1ccc(S(=O)(=O)O)cc1.[Zn] [Sulfanilate zinc]
scaled lipid accumulation score [4]: inactive: ≤ 0

C#C[C@]1(O)CC[C@H]2[C@@H]3CCC4=Cc5oncc5C[C@]4(C)[C@H]3CC[C@@]21C [Danazol]
scaled lipid accumulation score: inactive: 0.447 | scaled lipid accumulation score (library stock concentration: 5.9 mM): inactive: 0.204 and inactive: 0.103 | scaled lipid accumulation score [2]: inactive: ≤ 0

C#C[C@]1(O)CC[C@H]2[C@@H]3CCC4=Cc5oncc5C[C@]4(C)[C@H]3CC[C@@]21C
scaled lipid accumulation score [2]: inactive: 0.336

CC(C)c1nc(CN(C)C(=O)N[C@@H](CCN2CCOCC2)C(=O)N[C@H](CC[C@H](Cc2ccccc2)NC(=O)OCc2cncs2)Cc2ccccc2)cs1 [Cobicistat (GS-9350)]
scaled lipid accumulation score [1]: inactive: 0.21 | scaled lipid accumulation score [2]: inactive: 0.044

CCNC(=O)CCC/C=C\C[C@@H]1[C@@H](CC[C@@H](O)CCc2ccccc2)[C@H](O)C[C@@H]1O [Latanoprost ethyl amide]
scaled lipid accumulation score [3]: inactive: ≤ 0

Cc1cccc(-c2nn3c(c2-c2ccnc4ccc(C(N)=O)cc24)CCC3)n1
scaled lipid accumulation score [1]: inactive: 0.006 | scaled lipid accumulation score [2]: inactive: ≤ 0

O=C(Nc1cccnc1)N1CCC(Cc2cccc(Oc3ccc(C(F)(F)F)cn3)c2)CC1
scaled lipid accumulation score [1]: inactive: 0.029 | scaled lipid accumulation score [2]: inactive: 0.224

CCOc1ccc(Cc2nccc3cc(OCC)c(OCC)cc23)cc1OCC [Ethaverine hydrochloride]
scaled lipid accumulation score: inactive: ≤ 0 | scaled lipid accumulation score [2]: inactive: ≤ 0

CCCCCC(=O)CC[C@H]1[C@H](O)CC(=O)[C@@H]1C/C=C\CCCC(=O)O [13,14-dihydro-15-keto Prostaglandin E2]
scaled lipid accumulation score [3]: inactive: ≤ 0

Cc1cc(C)nc(NS(=O)(=O)c2ccc(NC(=S)NC(=O)COc3ccc(Br)cc3Cl)cc2)n1
scaled lipid accumulation score [1]: inactive: ≤ -0.009 | scaled lipid accumulation score [2]: inactive: ≤ 0

CCCCCCCC/C=C\CCCCCCCC(=O)NCC [Oleoyl Ethyl Amide]
scaled lipid accumulation score [3]: inactive: ≤ 0

CCCCc1oc2ccccc2c1C(=O)c1cc(I)c(OCCN(CC)CC)c(I)c1
scaled lipid accumulation score (library stock concentration: 7.3 mM): inactive: 0.281 | scaled lipid accumulation score (library stock concentration: 9.5 mM): active: 1.34

CCCCc1oc2ccccc2c1C(=O)c1cc(I)c(OCCN(CC)CC)c(I)c1 [Amiodarone]
scaled lipid accumulation score (library stock concentration: 3.1 mM): inactive: 0.438

CCCCc1oc2ccccc2c1C(=O)c1cc(I)c(OCCN(CC)CC)c(I)c1 [Amiodarone hydrochloride]
scaled lipid accumulation score: inactive: 0.445 | scaled lipid accumulation score (library stock concentration: 2.9 mM): inactive: 0.417

CCCCc1oc2ccccc2c1C(=O)c1cc(I)c(OCCN(CC)CC)c(I)c1 [Amiodarone HCl]
scaled lipid accumulation score [1]: inactive: 0.394

O=c1[nH]c(=O)n([C@H]2C[C@H](O)[C@@H](CO)O2)cc1I
scaled lipid accumulation score [2]: inactive: ≤ 0

O=c1[nH]c(=O)n([C@H]2C[C@H](O)[C@@H](CO)O2)cc1I [Idoxuridine]
scaled lipid accumulation score: inactive: 0.038 | scaled lipid accumulation score [1]: inactive: 0.015 | scaled lipid accumulation score [2]: inactive: 0.006

N[C@@H](COP(=O)(O)O)C(=O)O [O-Phospho-L-serine]
scaled lipid accumulation score [2]: inactive: 0.167

N[C@@H](COP(=O)(O)O)C(=O)O
scaled lipid accumulation score [2]: inactive: ≤ 0

Cc1cccc(N(C)C(=S)Oc2ccc3ccccc3c2)c1 [Tolnaftate]
scaled lipid accumulation score: inactive: 0.12 | scaled lipid accumulation score [1]: inactive: 0.03 | scaled lipid accumulation score [2]: inactive: ≤ 0

O=C(O)c1cc2cc(F)ccc2[nH]1 [5-Fluoroindole-2-carboxylic acid]
scaled lipid accumulation score [2]: inactive: ≤ 0

NC(C(=O)O)c1ccc(C(=O)O)c(C(=O)O)c1 (centres undefined)
scaled lipid accumulation score [2]: inactive: ≤ -0.006

CC(C)N(CCC(=O)c1ccc2ccccc2c1)Cc1ccccc1.Cl
scaled lipid accumulation score [2]: active: 0.966

CN(C(=O)CCCOc1ccc2[nH]c(=O)ccc2c1)C1CCCCC1 [Cilostamide]
scaled lipid accumulation score (library stock concentration: 5.8 mM): inactive: ≤ 0 | scaled lipid accumulation score [2]: inactive: 0.154 and inactive: 0.019

NNC(=O)c1ccncc1 [Isoniazid]
scaled lipid accumulation score: inactive: 0.025 | scaled lipid accumulation score [1]: inactive: 0.054 | scaled lipid accumulation score [2]: inactive: ≤ 0

CN1CCN(C(=O)c2nc3ccc(Cl)cc3[nH]2)CC1
scaled lipid accumulation score [2]: inactive: 0.076

COc1ccc(Br)cc1S(=O)(=O)NC(=O)/C=C/c1ccccc1Cc1ccc2ccccc2c1
scaled lipid accumulation score [2]: inactive: 0.132 and inactive: 0.029

CC1(C)C=C(CN2C/C(=C\c3ccc(F)cc3)C(=O)/C(=C/c3ccc(F)cc3)C2)C(C)(C)N1O
scaled lipid accumulation score [1]: inactive: 0.264 | scaled lipid accumulation score [2]: inactive: 0.694

CCC(=O)OCC(=O)[C@@]1(OC(=O)CC)[C@@H](C)C[C@H]2[C@@H]3CCC4=CC(=O)C=C[C@]4(C)[C@@]3(F)[C@@H](O)C[C@@]21C [Betamethasone 17,21-dipropionate]
scaled lipid accumulation score (library stock concentration: 4 mM): inactive: ≤ 0

CC1(C)O[C@@H]2C[C@H]3[C@@H]4C[C@H](F)C5=CC(=O)CC[C@]5(C)[C@H]4[C@@H](O)C[C@]3(C)[C@]2(C(=O)CO)O1 [Flurandrenolide]
scaled lipid accumulation score: inactive: ≤ 0 | scaled lipid accumulation score [2]: inactive: ≤ 0

Cc1ccc(S(=O)(=O)OCC(=O)Nc2ccc(C(=O)O)c(O)c2)cc1
scaled lipid accumulation score [1]: inactive: ≤ 0 | scaled lipid accumulation score [2]: inactive: ≤ 0

COc1cc(C(=O)NC2CCN(C)CC2)ccc1Nc1ncc2c(n1)N(C1CCCC1)CCC(=O)N2C(C)C
scaled lipid accumulation score [2]: active: 0.868

O=C(O)CCCN1CCC(O[C@@H](c2ccc(Cl)cc2)c2ccccn2)CC1 [Bepotastine Besilate]
scaled lipid accumulation score [1]: inactive: ≤ 0 | scaled lipid accumulation score [2]: inactive: ≤ 0

CNc1nccc(-c2cccnc2Oc2cc(C(=O)Nc3cccc(C(F)(F)F)c3)ccc2C)n1
scaled lipid accumulation score [2]: active: 1.13

CCN(CC)CCOc1ccc(/C(=C(/Cl)c2ccccc2)c2ccccc2)cc1.O=C(O)CC(O)(CC(=O)O)C(=O)O [Clomiphene citrate (Z,E)]
scaled lipid accumulation score: active: 0.946

CC[C@]1(O)C[C@H]2CN(CCc3c([nH]c4ccccc34)[C@@](C(=O)OC)(c3cc4c(cc3OC)N(C=O)[C@H]3[C@@](O)(C(=O)OC)[C@H](OC(C)=O)[C@]5(CC)C=CCN6CC[C@]43[C@@H]65)C2)C1.O=S(=O)(O)O [Vincristine sulfate]
scaled lipid accumulation score [2]: active: 1.36

COc1cc(C(=O)OCCCN2CCCN(CCCOC(=O)c3cc(OC)c(OC)c(OC)c3)CC2)cc(OC)c1OC.Cl.Cl
scaled lipid accumulation score [2]: active: 0.84

CCCN(CC1CC1)c1nc(C)nc(Nc2c(Cl)cc(Cl)cc2Cl)c1Cl
scaled lipid accumulation score [2]: inactive: 0.333 and inactive: 0.068

COc1ccc(Cl)cc1NC(=O)Nc1cc(C)nc2ccccc12
scaled lipid accumulation score [2]: active: 1.1

CN1CCN(C(=O)c2cc3cc(Cl)ccc3[nH]2)CC1
scaled lipid accumulation score [1]: inactive: 0.053 | scaled lipid accumulation score [2]: inactive: 0.452

COc1ccc(CNc2nc(N3CCC[C@H]3CO)ncc2C(=O)NCc2ncccn2)cc1Cl [Avanafil]
scaled lipid accumulation score [1]: inactive: ≤ 0 | scaled lipid accumulation score [2]: inactive: 0.13
